According to the supplement of paper PMC3334620:
In all, about 33,000 sequences were measured (“E-score (-0.5 to 0.5)”: median about -0.043, highest 2% from about 0.37 on). The list shows a part of the results.

These sequences were tested against T1, Upc2 (UniProt Q12151) (assay: PBM E-score (8-mer binding enrichment) (E-score (-0.5 to 0.5)); higher = stronger / more preferred TF binding; most listed sequences are background and not binding sites). Conditions: protein concentration: 200 nM; construct: GST-full length.
T1 sequence: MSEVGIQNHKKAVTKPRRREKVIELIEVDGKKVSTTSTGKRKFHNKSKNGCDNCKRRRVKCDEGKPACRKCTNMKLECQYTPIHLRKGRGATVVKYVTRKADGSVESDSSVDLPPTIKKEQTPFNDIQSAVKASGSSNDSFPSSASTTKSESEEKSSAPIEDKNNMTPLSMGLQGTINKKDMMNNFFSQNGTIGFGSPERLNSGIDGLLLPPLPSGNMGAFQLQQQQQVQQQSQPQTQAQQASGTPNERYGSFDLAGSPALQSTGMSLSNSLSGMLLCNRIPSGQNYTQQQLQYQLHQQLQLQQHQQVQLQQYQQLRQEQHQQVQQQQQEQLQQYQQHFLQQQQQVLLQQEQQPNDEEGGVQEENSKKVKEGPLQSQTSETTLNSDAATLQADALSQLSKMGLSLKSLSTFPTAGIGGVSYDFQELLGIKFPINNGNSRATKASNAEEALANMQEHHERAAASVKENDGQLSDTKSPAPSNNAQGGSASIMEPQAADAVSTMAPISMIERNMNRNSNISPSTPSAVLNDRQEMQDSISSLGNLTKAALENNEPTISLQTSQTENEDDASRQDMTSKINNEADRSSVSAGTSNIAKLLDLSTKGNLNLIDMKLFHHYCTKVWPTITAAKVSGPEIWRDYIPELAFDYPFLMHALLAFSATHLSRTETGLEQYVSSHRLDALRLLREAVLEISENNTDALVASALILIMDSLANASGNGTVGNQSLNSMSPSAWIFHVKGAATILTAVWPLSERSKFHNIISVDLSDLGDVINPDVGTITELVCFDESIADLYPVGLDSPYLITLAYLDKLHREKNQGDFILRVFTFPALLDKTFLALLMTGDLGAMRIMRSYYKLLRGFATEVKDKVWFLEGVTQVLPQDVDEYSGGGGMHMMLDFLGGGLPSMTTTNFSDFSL
Procedure, shortened: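 Full-length yeast transcription factors or their DNA-binding domains, GST-tagged and expressed with PURExpress, were applied at about 100-200 nM to universal all-10-mer Agilent arrays. These arrays had been made double-stranded by primer extension on fresh or once-stripped slides. Detection used fluorescent anti-GST, normalisation used masliner, and E-scores for ungapped eight-base words pooled with reverse complements came from the Universal PBM Analysis Suite.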

Sequence | PBM E-score
AACCCTGC | 0.0669
CACATATG | -0.15
ACAATCCT | -0.183
ATGTGTCA | -0.224
AGTTTCCA | -0.116
ATTGCTGG | -0.0945
ACGTCTTG | -0.0246
TATCCACA | -0.164
CTATGGAC | -0.193
ACGTCGTG | 0.0636
CCCCACAG | -0.153
GATCTACC | -0.0836
GTTCCTCA | -0.0794
AGCAATAG | -0.0995
AACATACA | 0.0209
CGGCTTAA | 0.113
ACCGTGCG | 0.0948
GTAGGCAA | -0.0681
AGAGGCTA | -0.168
CAGTCATG | -0.372
CAATACTA | -0.206
AACGACTT | 0.305
CTTAGAAG | -0.0532
GACTCCTA | -0.308
AGCGTATG | 0.268

Sequence | PBM E-score
AGCATCGC | 0.0481
AAACGTTG | 0.196
CCCGGGTA | 0.0367
CATTCTAC | -0.0747
AGTGGCAA | -0.0731
ATAAGTCG | 0.178
AACCCTCC | -0.159
GGGTAGGA | -0.251
CTAAAGGA | -0.0487
CCGAACGG | 0.199
CTCCACAA | -0.0492
GCCCAAAA | -0.183
ATTTTTTG | -0.114
CGTGCGCC | -0.111
ATGTGCGA | 0.183
GCGGATAC | 0.173
ATTGGTCC | -0.115
CACCAAGA | -0.123
ATGGCGGA | -0.291
AACGTTGG | 0.0877
AGGAGACT | -0.276
CACGCTCA | -0.175
AGCTATAG | -0.335
CGACTACA | 0.0715
AGCAAAGA | -0.287

Sequence | PBM E-score
GGGGGTAC | 0.038
GAAATTTC | -0.129
AGGACCGC | -0.0146
GAGTACTA | 0.146
GCAAGCGA | 0.174
CGACAACC | 0.201
AACCAAGA | -0.216
AAGGGATA | -0.148
CAGCTCGC | 0.177
AGTTGAAT | -0.0311
AAAGAGCT | -0.156
AATTTCTC | -0.13
TCCACCAA | -0.202
ATGGACTG | -0.0948
CTGAAAGC | -0.0469
AATTCCTC | 0.0346
CCTATATC | -0.111
GTCGTGGA | -0.269
ACATGAGT | -0.14
ACTTGAGC | -0.084
GATTTTAC | 0.158
GACGAAGC | 0.00181
GGAACGAC | 0.453
CATCCCCC | -0.241
CGTCCGAC | -0.0139

Sequence | PBM E-score
ATATAGTA | 0.0248
GCCGCGAA | -0.105
CTAATAGA | 0.064
ACAAGACC | -0.248
AAGTAGAA | -0.176
ACCAGGAG | -0.167
CGAAATAG | 0.0802
CTCGAAGC | -0.218
TCTGCGCA | -0.00778
CTCATAAG | -0.0756
AGAGGTAC | -0.158
ATCGCACG | -0.0846
GAGCGATC | 0.11
TCGGCAAA | 0.1
AAGCGCGA | 0.0392
GACATAGC | -0.239
CTTCCATC | -0.243
GATCTTGC | -0.106
CGACCAGA | 0.0386
ATCAGTTG | -0.172
ATAACCCC | -0.125
CAGTACTA | -0.0786
CCGTGTAC | 0.28
ACCAAGGA | -0.182
ATCGGGGC | -0.0345

Sequence | PBM E-score
AATAGACT | -0.11
ACTCTCCC | -0.306
CTGAATAA | -0.077
TAATTATA | 0.206
GGCGAAGA | -0.241
AGACGGGG | -0.147
GTCGTTAA | 0.465
CCCAAAAC | 0.0799
AGCCCCTC | 0.0707
CATTATGA | -0.00873
CACTAGTG | -0.0259
CCAGCTTC | 0.0777
CGCACTAC | -0.0438
CCCCTACG | -0.00672
CACGGTAG | -0.132
ACCACTTG | 0.0216
CAAGGATA | -0.154
CGGGGGAG | -0.327
TGCACTAA | 0.132
AGATTCGG | -0.0979
AGCACATC | -0.0866
GACGGATA | 0.017
ATCGCTTA | 0.364
TCCGATAA | -0.0419
AGTGGATA | -0.0766

Sequence | PBM E-score
GAGTATGA | 0.122
ACTATTGA | -0.107
CCTCTCGA | -0.233
AGCATCCG | 0.106
ATGCTCTG | -0.327
CAATGTTC | -0.0537
GGATTGTA | 0.107
ACGGCGCC | 0.163
AACGTGGG | 0.0129
ATCGCACA | 0.179
GCGCATGA | -0.299
CATGCACA | -0.124
CAACCCTG | -0.111
ACCTACGT | 0.0734
GGGACTTA | 0.0736
CTACGAAG | 0.316
ACACTACC | -0.098
TACCTCCA | -0.00908
AGTGCTAA | 0.00422
GTCAGCCA | -0.216
AGGGATTG | 0.058
GCGCGGTA | 0.103
TCTGAGCA | -0.13
ACCCTATC | -0.0893
GAGACGTA | 0.113

Sequence | PBM E-score
ATTTGGAG | -0.217
ACATTAAA | 0.099
CCTGTATA | 0.157
CGTACTCC | 0.256
CCTATTTC | -0.147
ACCGATCG | 0.22
AGTCATAT | -0.13
CGACAGGA | 0.107
AAGCTTAG | -0.0363
TGATTTAA | -0.107
AAAGTCTC | -0.0443
GCAATTGC | -0.014
ACAGCGAG | -0.00379
CCACGTGA | -0.165
ATATAGGC | 0.0305
ACCGAAAA | 0.138
CAACAAGC | -0.163
AACCTTAA | -0.0268
GGGGCTAA | -0.163
GGGTGCTA | -0.224
ACACTAAA | 0.123
AGCGCGTC | -0.197
GCAGCACC | -0.408
CGTTAGAA | 0.187
ACTTCCTA | -0.194

Sequence | PBM E-score
ACGGACCC | 0.199
AGAGACAC | -0.0608
ACGTAAAT | 0.174
GCGAACCC | 0.0969
AGAAAACT | -0.094
CCATGTCC | -0.112
CTGGGTCC | -0.1
AATGTCGT | 0.318
GGCCGCAA | -0.0822
CGAACGTA | 0.22
CAAACGCA | 0.258
CATTGGAG | -0.0944
CGGTGCTA | 0.171
CATCTAAC | -0.0214
CATATTGA | -0.0938
AGCCCGGA | -0.0941
ATACATTC | -0.00444
CTAGGCAA | -0.304
GACTTGCC | -0.181
AATGACAG | -0.0946
ACAAGAGA | -0.0496
CTCTGTCC | -0.116
CATCACGA | -0.149
AATGACTC | -0.0886
GTAACTAA | 0.103

Sequence | PBM E-score
CGGGTGCA | -0.0254
CAGTGGGC | -0.138
CAATGGCC | -0.0349
CCCCTGCA | -0.248
GACATCAC | 0.0962
CGGTGGAA | 0.146
GAAGATAA | 0.0599
CAAGTCAG | -0.182
AACTTAAG | -0.176
AGGGAAAG | -0.113
ACGCAACT | 0.0512
CTTGGATC | -0.147
ATCTGCGA | -0.211
CCCGATCG | 0.138
ATGGAGTC | -0.26
GAACTGCC | -0.00245
GACCGATA | 0.123
GTAGCTAC | -0.00085
CCGCCTAG | -0.217
